According to PubChem BioAssay AID588855 (National Center for Advancing Translational Sciences (NCATS), 2011):
Hit rate of the full screen: of about 410,000 compounds, about 5,000 (1.2%) were called active. Inconclusive results, whose numbers are uncertain, are shown with a selection of clear calls. The call rests on the fitted dose curve; in most records, active means well fitted inhibition curve with a large enough effect; inconclusive means small, poorly fitted or top-dose-only effect; inactive means no such curve, though single readings can be large or run the other way. Where the call is inconclusive, the potency comes from a doubtful curve fit.

Test: qHTS for Inhibitors of TGF-b; further: nearly all actives have a fitted effect of over 65% in size
Settings: HepG2 CAGA-GFP TGF-b/SMAD3 reporter, GFP fluorescence, 18 h, TGF-beta stimulated, 500 pg/mL final; series mostly up to 46.1 µM
In short: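 Using HEPG2 CAGA-GFP reporter cells at 1000 cells/well, we pinned test compounds, stimulated with recombinant TGF-beta (500 pg/mL final) and measured total well GFP after 18 h.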
Potency means the concentration at half of the fitted maximal effect; tags describe the fitted curve by direction and shape.

| SMILES | Potency |
| --- | --- |
| CN(C(=O)c1ccc(NC(=O)Cc2ccc(NC(=O)C3CCN(C(=O)C4CCCC4)CC3)cc2)cc1)C1CC1 | inconclusive: 12.6 µM [inhibitor, single point] |
| CNC(=O)/C=C1\NC(C)(C)Cc2ccccc21 | inconclusive: 22.4 µM [inhibitor, single point] |
| COc1ccc(S(=O)(=O)N2CCC(C(=O)N[C@@H](C)C(=O)NC3CCCC3)CC2)cc1 | inactive |
| O=C(NNC(=S)Nc1ccc(F)c(Cl)c1)c1ccccc1Br | inconclusive: 22.4 µM [inhibitor, single point] |
| Cc1cccc(-c2cnc(C(O)c3ccc(-c4ccccc4)cc3)[nH]2)c1 (stereo not given) | inconclusive: 35.5 µM [inhibitor, single point] |
| COc1ccc(C(=O)N/C(=C\c2cn(C)c3ccccc23)C(=O)N2CCOCC2)cc1OC | inactive |
| COc1ccc2[nH]c(C(=O)N3CCc4ccccc4C3)c(C)c2c1 | inconclusive: 15.8 µM [inhibitor, single point] |
| O=S1(=O)C[C@H](N2CCC(Cc3ccccc3)CC2)[C@@H](COCc2ccccc2)N1 | inconclusive: 22.4 µM [inhibitor, single point] |
| O=c1c([N+](=O)[O-])c(NCCN2CCCCCC2)c2ccccc2n1-c1ccccc1 | inconclusive: 11.2 µM [inhibitor, partial curve] |
| CCOc1ccc(Nc2c3ccccc3nc3ccccc23)cc1 | inconclusive: 35.5 µM [inhibitor, partial curve, poor fit] |
| COc1ccc(N2CC(O)=C(c3nc(-c4ccc(Br)cc4)cs3)C2=N)cc1 | inactive |
| Cc1ccc(OC(C)C(=O)Nc2ccc(C)c(S(=O)(=O)Nc3ccc(C)cc3C)c2)cc1 (stereo not given) | inconclusive: 35.5 µM [inhibitor, single point] |
| Cc1ccc(NC(=S)NCc2ccccn2)cc1 | inconclusive: 0.631 µM [inhibitor, full curve, poor fit] |
| Clc1ccccc1C(c1nnnn1Cc1ccco1)N1CCN(Cc2ccco2)CC1 (stereo not given) | inactive |
| O=C(CSc1nnc2scc(-c3ccccc3)n12)Nc1nsc(-c2ccc(Cl)cc2)n1 | inactive |
| Cc1ccc(C(C)NC(=O)c2ccco2)cc1C (stereo not given) | inactive |
| CCc1nnc(NC(=O)Nc2ccccc2OC)s1 | inactive |
| C[C@H](NC(=O)c1nc[nH]c1C(=O)N[C@@H](Cc1ccccc1)C(=O)OCc1ccccc1)C(=O)OCc1ccccc1 | inconclusive: 7.08 µM [inhibitor, partial curve, poor fit] |
| CCCCN(C)S(=O)(=O)c1ccc(C(=O)N(CCN(C)C)c2nc3ccc(C)cc3s2)cc1 | inactive |
| COc1ccccc1N1CCN(C(=O)c2ccc(Cl)c(S(=O)(=O)N3CCOCC3)c2)CC1 | inconclusive: 35.5 µM [inhibitor, single point] |
| CCCCn1c(SCC(=O)Nc2ccccc2C(F)(F)F)nc2ccsc2c1=O | inconclusive: 35.5 µM [inhibitor, single point] |
| CC(=O)c1ccc(NC(=O)C2CCCC2)cc1 | inactive |

| SMILES | Potency |
| --- | --- |
| NCC(=O)NNC(=O)OCC1c2ccccc2-c2ccccc21 | inactive |
| Cc1cc2ccccc2nc1SCC(=O)N1CCCC1 | inconclusive: 10 µM [inhibitor, partial curve, poor fit] |
| Cc1oc(-c2ccccc2F)nc1CS(=O)(=O)CC(=O)N1CCN(c2ccc(Cl)cc2)CC1 | inconclusive: 11.2 µM [inhibitor, partial curve] |
| CCc1cccc(NC(=O)c2c(N3CCCC3=O)c3cc(C)ccc3n2C)c1 | inconclusive: 7.08 µM [inhibitor, partial curve, poor fit] |
| Cc1cc(C)c2sc(N(CCCN(C)C)C(=O)CN3C(=O)c4ccccc4C3=O)nc2c1 | inconclusive: 17.8 µM [inhibitor, single point] |
| CC(=O)Nc1ccccc1-c1nc2ccccc2n(CC(=O)Nc2ccc(C)c(Cl)c2)c1=O | inconclusive: 11.2 µM [inhibitor, partial curve, poor fit] |
| CCOC(=O)N1CCC(NC(=O)c2cc(COc3ccccc3SC)on2)CC1 | inactive |
| O=C(c1ccc2c(c1)N(Cc1ccc(F)cc1)C(=O)c1ccccc1S2(=O)=O)N1CCCCCC1 | inconclusive: 8.91 µM [inhibitor, partial curve] |
| CCOc1ccc(NC(=O)CSC2=Nc3ccccc3C3=NC(CC(=O)NCc4ccccc4OC)C(=O)N23)cc1 (stereo not given) | inactive |
| Cc1ccc(-n2[nH]c(C)c(/C=N/Nc3ccc([N+](=O)[O-])cc3[N+](=O)[O-])c2=O)cc1C | inconclusive: 25.1 µM [inhibitor, partial curve, poor fit] |
| O=C(O)c1cc(-c2ccc3c(c2)OCCO3)n[nH]1 | inactive |
| C=Cc1ccc(Cn2c(C)c(C(=O)NCc3ccc(Cl)c(Cl)c3)sc2=O)cc1 | inconclusive: 11.2 µM [inhibitor, single point] |
| O=C(Nc1ccc(Cl)cc1)NC1(C(=O)NCCCN2CCOCC2)CCCCC1 | inactive |
| CC(CN1C(C)CCCC1C)OC(=O)c1ccccc1Br (stereo not given) | inactive |
| COc1ccc2sc(-c3ccccc3OC)c(-c3ccc(OCCN4CCCC4)cc3)c2c1 | inconclusive: 35.5 µM [inhibitor, single point] |
| COc1ccc(C(=O)n2nc(-c3ccc(Cl)cc3)nc2NCc2ccco2)cc1 | inactive |
| CN(C)CC1CCC/C(=C\c2ccc(OC(=O)c3ccc(Cl)cc3)cc2)C1=O (stereo not given) | inconclusive: 6.31 µM [inhibitor, single point] |
| CC1Cc2ccccc2N1CC(=O)Nc1ccc(N2CCOCC2)cc1 (stereo not given) | inactive |
| CCSc1nnc(NC(=O)c2nc(S(=O)(=O)Cc3ccc(F)cc3)ncc2Cl)s1 | inconclusive: 35.5 µM [inhibitor, single point] |
| CCN1C(=O)[C@H]2[C@@H](c3ccc(-c4cccc(Cl)c4)c(OC)c3)N3CCC[C@@]3(C(=O)OC)[C@H]2C1=O | inconclusive: 35.5 µM [inhibitor, single point] |
| O=S(=O)(c1ccccc1)c1ccc(NCc2ccco2)cc1 | inactive |
| Cc1ccccc1-n1ncc(C(C)NS(=O)(=O)c2sccc2C)c1C (stereo not given) | inactive |

| SMILES | Potency |
| --- | --- |
| COc1ccc(-c2cn3c(n2)sc2cc(C(=O)Nc4c(C)cccc4C)ccc23)cc1 | inconclusive: 11.2 µM [inhibitor, single point] |
| COc1cc2cnc(C3=CCCCC3)cc2cc1OC | inconclusive: 1 µM [inhibitor, full curve, poor fit] |
| COC(=O)c1sc(-c2ccccc2)cc1NC(=O)Nc1ccccc1Cl | inconclusive: 35.5 µM [inhibitor, single point] |
| O=C1C=C(c2ccccc2)C[C@H](c2cccs2)[C@H]1n1nnc([N+](=O)[O-])n1 | inactive |
| C=C(C)Cn1c(CCn2c3ccccc3c3ccccc32)n[nH]c1=S | inconclusive: 10 µM [inhibitor, partial curve, poor fit] |
| O=C(CC1C[C@H](C(=O)N2CCCCC2)[C@@]2(CCc3ccccc3)c3[nH]c4ccccc4c3CCN2C1=O)NCCCn1ccnc1 (stereo not given in full) | inconclusive: 14.1 µM [inhibitor, single point] |
| COc1ccc(Cl)cc1NC(=S)N(CCN1CCOCC1)C1CCN(C(C)=O)CC1 | inactive |
| CCOC(=O)C1=C(N)Oc2ccc3ccccc3c2C1c1cccnc1 (stereo not given) | inconclusive: 17.8 µM [inhibitor, single point] |
| CC(=O)C(C(C)=O)C1(O)C(=O)c2ccccc2C1=O | inconclusive: 5.62 µM [inhibitor, single point] |
| CCOC(=O)N1CCC(NC(=O)C2CCN(S(=O)(=O)c3cccs3)CC2)CC1 | inconclusive: 35.5 µM [inhibitor, partial curve, poor fit] |
| COc1ccccc1NS(=O)(=O)c1ccc(N/N=C/C=C/c2ccccc2[N+](=O)[O-])c([N+](=O)[O-])c1 | inactive |
| COc1ccccc1Oc1ccc2c(c1)C(=O)N(CC1CCCO1)C2=O (stereo not given) | inconclusive: 35.5 µM [inhibitor, single point] |
| COC(=O)[C@@]12CCCN1[C@H](c1ccc(-c3ccc4c(c3)OCO4)cc1)[C@H]1C(=O)N(C)C(=O)[C@H]12 | inactive |
| CCC1CCCCN1CCCNC(=O)c1cn(CC)c2ccc(S(=O)(=O)N(C)C3CCCCC3)cc2c1=O (stereo not given) | inconclusive: 11.2 µM [inhibitor, partial curve, poor fit] |
| Cc1nc2ccc(S(=O)(=O)CCC(=O)Nc3ccc(C(C)C)cc3)cc2s1 | inconclusive: 2.51 µM [inhibitor, full curve] |
| CN(C)CCCNc1cc(-c2ccccc2)nc2cc(-c3cccc(F)c3)nn12 | inconclusive: 35.5 µM [inhibitor, single point] |
| CC(=O)N1CCN(c2ccccc2NC(=S)NC(=O)c2cc3ccccc3o2)CC1 | inconclusive: 35.5 µM [inhibitor, single point] |
| CSc1nsc(SCC(=O)N2CCN(c3ccccc3)CC2)n1 | inconclusive: 0.112 µM [inhibitor, full curve, poor fit] |
| CCCCC(=O)NC(c1ccc(Cl)cc1Cl)c1ccc2cccnc2c1O (stereo not given) | inconclusive: 14.1 µM [inhibitor, partial curve] |
| CCOC(=O)c1[nH]c(C)c(C(=O)N2CCc3c([nH]c4ccccc34)C2c2ccccn2)c1C (stereo not given) | inconclusive: 12.6 µM [inhibitor, partial curve, poor fit] |
| Cc1ccc(C(=O)Nc2cccnc2)cc1NC(=O)c1ccco1 | inconclusive: 5.62 µM [inhibitor, single point] |
